The list shows a part of the results. Viral Rep nickase domains cut single-stranded DNA in vitro (1 h at 37 °C, 3 µM enzyme); the outer parts of the 90-letter strands are left off. Values are log2 of uncut reads against the no-enzyme pool; the lower, the more was cut; hits are not called. Because reads are shares of a total, they shift together, so uncut sequences can rise above 0 when many others are cut.
What follows are sequences tested on T1, Rep nickase domain of Muscovy duck circovirus (assay: uncleaved DNA left, log2 of reads against the no-enzyme library (log2 ratio); higher = less cleavage (more negative = more Rep cleavage of the k-mer); sequences stand for … in CTCGTCCG…ACCGGAGA).
T1 sequence (protein, residues 1-111, tag omitted): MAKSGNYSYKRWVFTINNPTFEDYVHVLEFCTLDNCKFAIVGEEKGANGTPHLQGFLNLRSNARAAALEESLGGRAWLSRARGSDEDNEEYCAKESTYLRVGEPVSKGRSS
Method: (§1)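 A pool of 90-nt single-stranded DNAs with seven random bases just before the constant AC of the nick site (name = the seven bases) was cut by 3 µM recombinant His6-SUMO-tagged Rep nickase domain (300 nM DNA, 50 mM HEPES pH 8.0, 50 mM NaCl, 1 mM MnCl2, 1 h, 37 °C, three replicates). Uncut DNA was amplified and sequenced.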

| Sequence | uncleaved DNA left (log2) |
| --- | --- |
| GACGATC | 0.108 |
| CACCGAC | 0.0471 |
| AATCCAG | 0.0434 |
| AGACTTC | -0.124 |
| CCTCGCA | -0.00215 |
| CGGACCC | 0.0206 |
| AAGTTAG | 0.0688 |
| TGGTAAG | 0.072 |
| AGATCTC | 0.051 |
| GCACCAG | -0.0696 |
| AACCATC | -0.203 |
| CTGGAAA | 0.138 |
| AAATAAT | -4.09 |
| ACTAGGA | -0.0355 |
| ATAATCG | -0.0381 |
| TTCTTCT | -2.32 |
| TCTTTGA | -0.0424 |
| GCTAGCA | 0.064 |
| GGGTAGG | 0.149 |
| ACACCAG | -0.053 |

| Sequence | uncleaved DNA left (log2) |
| --- | --- |
| GTGATGT | 0.0338 |
| ACACCTC | -0.07 |
| AAGTCGA | 0.0241 |
| GGGCGTG | -0.122 |
| GTTATAC | -0.0984 |
| TCCCACC | -0.119 |
| ACGAGTA | 0.0694 |
| CGCTGGG | 0.116 |
| GTCCCGT | -0.0313 |
| GGCCTGA | 0.0308 |
| TGCTGTG | -0.0198 |
| CGGTCCC | 0.103 |
| TGCCTTC | 0.0917 |
| CAGACAT | -0.012 |
| TCAACCG | -0.179 |
| GTAGCGA | -0.108 |
| GGACCCT | -0.0164 |
| CTTATCT | -0.161 |
| GCGAGGG | -0.0797 |
| AAGTGAG | 0.0411 |

The sequences below were run on T2, Rep nickase domain of banana bunchy top virus in the same assay as above.
T2 sequence (protein, residues 1-94, tag omitted): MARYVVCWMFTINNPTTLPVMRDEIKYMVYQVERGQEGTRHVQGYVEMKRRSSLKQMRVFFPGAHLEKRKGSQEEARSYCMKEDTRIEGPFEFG
Method: as §1

| Sequence | uncleaved DNA left (log2) |
| --- | --- |
| GACGATC | 0.0285 |
| CACCGAC | -0.014 |
| AATCCAG | 0.0313 |
| AGACTTC | -0.0768 |
| CCTCGCA | 0.0499 |
| CGGACCC | -0.0282 |
| AAGTTAG | 0.0654 |
| TGGTAAG | -0.0159 |
| AGATCTC | 0.0182 |
| GCACCAG | 0.0218 |
| AACCATC | -0.143 |
| CTGGAAA | 0.116 |
| AAATAAT | -1.13 |
| ACTAGGA | -0.0623 |
| ATAATCG | -0.0292 |
| TTCTTCT | -0.0247 |
| TCTTTGA | 0.0542 |
| GCTAGCA | 0.0535 |
| GGGTAGG | 0.132 |
| ACACCAG | -0.0365 |

| Sequence | uncleaved DNA left (log2) |
| --- | --- |
| GTGATGT | 0.153 |
| ACACCTC | -0.0973 |
| AAGTCGA | -0.0469 |
| GGGCGTG | 0.0615 |
| GTTATAC | -0.0564 |
| TCCCACC | -0.0833 |
| ACGAGTA | -0.119 |
| CGCTGGG | -0.0275 |
| GTCCCGT | 0.0592 |
| GGCCTGA | 0.0719 |
| TGCTGTG | -0.106 |
| CGGTCCC | 0.0896 |
| TGCCTTC | 0.0478 |
| CAGACAT | 0.18 |
| TCAACCG | 0.00852 |
| GTAGCGA | -0.11 |
| GGACCCT | -0.0368 |
| CTTATCT | -0.00647 |
| GCGAGGG | 0.0349 |
| AAGTGAG | 0.0284 |

The sequences below were run on T3, Rep nickase domain of cabbage leaf curl virus in the same assay as above.
T3 sequence (protein, residues 1-116, tag omitted): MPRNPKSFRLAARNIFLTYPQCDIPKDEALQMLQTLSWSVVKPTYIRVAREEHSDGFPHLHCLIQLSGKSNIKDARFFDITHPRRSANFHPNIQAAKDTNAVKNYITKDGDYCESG
Method: as §1

| Sequence | uncleaved DNA left (log2) |
| --- | --- |
| GACGATC | 0.367 |
| CACCGAC | -0.0568 |
| AATCCAG | -0.673 |
| AGACTTC | 0.429 |
| CCTCGCA | -0.272 |
| CGGACCC | 0.477 |
| AAGTTAG | -0.707 |
| TGGTAAG | -0.536 |
| AGATCTC | 0.447 |
| GCACCAG | -0.528 |
| AACCATC | -0.187 |
| CTGGAAA | 0.245 |
| AAATAAT | -4.16 |
| ACTAGGA | 0.0827 |
| ATAATCG | -0.796 |
| TTCTTCT | 0.0174 |
| TCTTTGA | -0.00782 |
| GCTAGCA | -0.159 |
| GGGTAGG | 0.801 |
| ACACCAG | -0.608 |

| Sequence | uncleaved DNA left (log2) |
| --- | --- |
| GTGATGT | 0.438 |
| ACACCTC | -0.108 |
| AAGTCGA | -0.508 |
| GGGCGTG | 0.637 |
| GTTATAC | 0.319 |
| TCCCACC | -0.034 |
| ACGAGTA | -0.195 |
| CGCTGGG | -0.349 |
| GTCCCGT | 0.314 |
| GGCCTGA | 0.265 |
| TGCTGTG | -0.6 |
| CGGTCCC | 0.313 |
| TGCCTTC | 0.329 |
| CAGACAT | 0.78 |
| TCAACCG | -0.859 |
| GTAGCGA | -0.648 |
| GGACCCT | 0.713 |
| CTTATCT | 0.126 |
| GCGAGGG | -0.0132 |
| AAGTGAG | -0.394 |

Reference: the supplement of paper PMC7826260
